In patent publication US20130116284A1, “LIPOIC ACID AND NITROXIDE DERIVATIVES AND USES THEREOF” (RADIKAL THERAPEUTICS INC., priority 2010, published 2013):

Tested on: RAW cells
Experiment: cytoprotection of RAW cells exposed to H2O2 (viability)
Conditions: 0.1 μM, pre-treated 4 hours, H2O2 200 μM for 24 hours

SMILES	extent of recovery of viability [%]
NC(=O)c1cccc2[nH]c(CCCCC3CCSS3)nc12 (centres unmarked) [compound 1, 2-(4-(1,2-dithiolan-3-yl)butyl)-1H-benzo[d]imidazole-4-carboxamide]	25
C[C@]1(c2nc3c(C(N)=O)cccc3[nH]2)CCCN1 [ABT-888]	10
